Screen size: about 120,000 compounds; about 5,300 (4.4%) were called active. Inconclusive results, whose numbers are uncertain, are shown with a selection of clear calls. The call rests on the fitted dose curve; in most records, active means well fitted inhibition curve with a large enough effect; inconclusive means small, poorly fitted or top-dose-only effect; inactive means no such curve, though single readings can be large or run the other way. A potency beside an inconclusive call is a rough fit, not a confirmed value.
Test: qHTS Primary assay for Inhibitors of Plasmodium falciparum Dd2 growth in vitro; further: nearly all actives have a fitted effect of over 65% in size;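 on activity, negative = inhibition: plate controls were DMSO vehicle for no effect and reference drug for full effect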
Details: P. falciparum Dd2 growth, SYBR Green, 72 h; activity, negative = inhibition: at 28.9 µM (top of the series) unless noted; series mostly up to 28.9 µM
Procedure, shortened: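 Infected erythrocytes (Dd2, 0.3% parasitemia, 2.5% hematocrit final) are added to compound in RPMI-1640/Albumax II medium, grown 72 h at 37C in low oxygen, then lysed with saponin/Triton-X containing SYBR Green and read by fluorescence.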
Potency means the concentration at half of the fitted maximal effect; tags describe the fitted curve by direction and shape.

SMILES	Potency	activity, negative = inhibition
C=CCn1cc2c3c(cccc31)[C@H](CC(C)C)N[C@H](C(=O)NCCC)C2	inconclusive: 10 µM [inhibitor, partial curve]	
Cc1ccc2c(n1)N(C)[C@H](CO)CCN(Cc1cn(C)c3ccccc13)C2	active: 11.2 µM	
O=C1N(Cc2ccccc2)CCOC12CCN([S+](=O)([O-])c1ccccc1)CC2	inactive	
Cc1noc([C@@H]2CC(F)(F)CN2C(=O)c2cc(C)oc2C)n1	inactive	
COc1ccc(F)cc1Nc1cnc2ccc(N(C)C)nn12	inconclusive: 20 µM [inhibitor, single point]	
COc1ccc(NC(=O)Cn2c(=O)n(Cc3nc(-c4ccccc4)no3)c(=O)c3cc4c(cc32)OCO4)cc1Cl	inconclusive: 15.8 µM [inhibitor, single point]	
CC(=O)N1CCN(c2cc(-c3noc([C@@H]4CCCN4Cc4ccccc4)n3)ccn2)CC1	inconclusive: 39.8 µM [inhibitor, partial curve, poor fit]	
CCN1CCCCC12Cc1ccccc1CN(S(=O)(=O)c1ccccc1)C2 (centres undefined)	inconclusive: 3.55 µM [inhibitor, partial curve]	
COc1ccccc1OCCNC(=O)C1CCN(c2cc(C(F)(F)F)ncn2)CC1	inconclusive: 20 µM [inhibitor, single point]	
c1ccc(CC2=NOC3(CCN(CC4CCCCC4)CC3)C2)cc1	active: 3.55 µM	
CC(C)CCNC(=O)CSCc1cnn(-c2ccccc2)c1-n1cccc1	inconclusive: 10 µM [inhibitor, single point]	
COc1ccc(-c2noc([C@@H]3Cc4nc[nH]c4CN3C(=O)Nc3ccccc3)n2)cc1	inconclusive: 22.4 µM [inhibitor, single point]	
CCc1nc(SCC(=O)Nc2ccc(NC(C)=O)cc2)n[nH]1	inactive	
CCNC(=O)N[C@@H]1C=C[C@@H](c2c(C)nn(-c3ccc(C(C)C)cc3)c2C)C1	inconclusive: 3.16 µM [inhibitor, partial curve, poor fit]	
Cc1ccc(-n2c(=O)c3ccc(C(=O)NCc4ccco4)cc3n(Cc3cccc(Cl)c3)c2=O)cc1	inconclusive: 17.8 µM [inhibitor, single point]	
CC(C)c1cnc2c(c1SCc1cccc(C(F)(F)F)c1)c(=O)n(C)c(=O)n2C	inconclusive: 11.2 µM [inhibitor, partial curve, poor fit]	
Cc1noc(C)c1C(=O)NCC(=O)N1CCCCCNC(=O)CC1c1ccccc1 (centres undefined)	inactive	
Cc1ccc(N(C)C2CN(C(=O)OC(C)(C)C)C2)cc1	inconclusive: 14.1 µM [inhibitor, single point]	
c1cc2c(cc1-c1cn3c(n1)CO[C@@H](CNC1CCOCC1)C3)OCCCO2	inconclusive: 35.5 µM [inhibitor, single point]	
Cc1cc(C(=O)N2CCCn3nc(CCC(=O)O)cc3C2)c2c(C)noc2n1	inactive	
Cc1ccc(OCc2nc(C3CCCN3C(=O)C3CC3)no2)cc1 (centres undefined)	inconclusive: 7.08 µM [inhibitor, partial curve, poor fit]	
O=C(CC1CCCC1)N1CCCCCC1c1nnc(-c2ccccc2)o1 (centres undefined)	inconclusive: 1.58 µM [inhibitor, full curve]	

SMILES	Potency	activity, negative = inhibition
COc1ccc(CN2C(=O)C(NC(=O)c3ccccc3C)(C(F)(F)F)N=C2c2ccccc2)cc1 (centres undefined)	inconclusive: 0.0316 µM [inhibitor, full curve, poor fit]	
Fc1ccc(-c2nnc3ccc(Nc4ccc(N5CCOCC5)cc4)nn23)nc1	inconclusive: 17.8 µM [inhibitor, partial curve, poor fit]	
Cc1cccc(NC(=O)Cn2cc(C(=O)c3ccco3)c3ccccc32)c1C	inconclusive: 10 µM [inhibitor, single point]	
CCCCc1nn(CC(=O)N2C[C@H]3CC=C(C)C[C@H]3C2)c(=O)n1CC	inactive	
CC(C)c1noc(-c2cn(C3CCN(C(=O)c4ccc(C#N)cc4)CC3)nn2)n1	inconclusive: 3.98 µM [inhibitor, single point]	
COc1ccc(-c2ccnc(N[C@H]3CO[C@H]4[C@@H]3OC[C@@H]4NS(=O)(=O)c3ccc(C)cc3)n2)cc1	inconclusive: 7.08 µM [inhibitor, partial curve, poor fit]	
COc1ccc2c(c1)-c1nc(NC(=O)c3ccc(Cl)cc3)sc1CC2	inconclusive: 8.91 µM [inhibitor, partial curve, poor fit]	
COc1ccc(CN2Cc3[nH]nc(-c4ccccc4OC)c3CC2=O)cc1	inactive	
COCCOc1cc(C)c2c(c1C)C[C@H](C(C)C(=O)N1CCC(O)CC1)CC2 (some centres undefined)	inactive	
CCOc1cccc(CN2C[C@@H]3C(=O)N(CCN4CCc5ccccc5C4)C(=O)[C@@H]3C2)c1	inconclusive: 0.0708 µM [inhibitor, full curve, poor fit]	
CCN(CC)C(=O)CN1C(=O)NC(c2ccccc2)C2=C1COC2=O (centres undefined)	inactive	
COCCNC(=O)c1ccc(CC2CCN(C(=O)CN3CCCCCC3)CC2)cc1	inconclusive: 10 µM [inhibitor, single point]	
O=C(CCC1CCCN(C(CO)CO)C1)N1CCN(Cc2ccccc2)CC1 (centres undefined)	inconclusive: 0.0631 µM [inhibitor, full curve, poor fit]	
CC1CCC2(CC1)OCC(C(=O)NCc1ccccc1)N2C(=O)c1cccc(Cl)c1 (centres undefined)	inactive	
CN(Cc1ccccc1C(F)(F)F)C(=O)Cc1ccc(F)cc1	inconclusive: 15.8 µM [inhibitor, single point]	
Cc1noc(C)c1-c1cc2c(cc(C)n2C)c(N2CCN(c3ccccn3)CC2)n1	inconclusive: 1.41 µM [inhibitor, partial curve]	
COc1ccc(C)c2sc(N(Cc3cccnc3)C(=O)CCc3ccccc3)nc12	inconclusive: 17.8 µM [inhibitor, single point]	
CC1=C[C@@H](CNC(=O)C2CC2)[C@H](C(C)C)C[C@H]1CC(=O)Nc1ccccn1	inconclusive: 31.6 µM [inhibitor, single point]	
O=C(Nc1ccc(Cl)cc1)N1CCC2(CC1)C(=O)NCN2Cc1ccc(Cl)cc1	inconclusive: 0.282 µM [inhibitor, full curve]	
CCCCN(CC)C(=O)Nc1ccc2c(c1)N(C)C(=O)c1ccccc1S2	inconclusive: 11.2 µM [inhibitor, single point]	
COc1ccccc1-c1ccc(NC(C)c2cn(C)nc2C)nn1 (centres undefined)	inactive	
COc1ccc(C(=O)N2CCc3cc(OC)c(OC)cc3C2COc2ccccc2OC)cc1 (centres undefined)	inconclusive: 12.6 µM [inhibitor, partial curve, poor fit]	

SMILES	Potency	activity, negative = inhibition
COc1ncccc1-c1nccn2c(C3CN(C(=O)c4cc5ccccc5[nH]4)C3)ncc12	inconclusive: 2 µM [inhibitor, full curve]	
COc1ccccc1-c1cc(C(=O)NCc2cccnc2)nc2c1cnn2C		inconclusive: -72.1% [inhibitor]
CCCC1(CO)CCCN(Cc2cnn(-c3cccc(F)c3)c2)C1 (centres undefined)	inconclusive: 10 µM [inhibitor, single point]	
CC(C)NC(=O)c1ccccc1OCC1CCCN(Cc2ccncc2F)C1 (centres undefined)	inconclusive: 20 µM [inhibitor, single point]	
COC[C@@H]1CN(CCCc2ccccc2)C[C@H]1C(N)=O	inconclusive: 15.8 µM [inhibitor, partial curve, poor fit]	
O=C1CC(c2ccccc2)N(Cc2ccncc2)CCCN(CC2CCCCC2)CCN1 (centres undefined)	active: 3.16 µM	
COc1ccc(NC(=O)N2CCc3c(nc4cc(-c5ccccc5)[nH]n4c3=O)C2)c(OC)c1	inconclusive: 3.98 µM [inhibitor, single point]	
CN(C)C(=O)N[C@@H]1CN[C@H](CO)C1	inconclusive: 4.47 µM [inhibitor, single point]	
O=C(NCCc1ccccn1)C1CN(S(=O)(=O)c2cccnc2)CC12CCCCC2 (centres undefined)	inactive	
COc1ccc(C2Cn3nnc(-c4noc(-c5cc(F)ccc5F)n4)c3CO2)cc1 (centres undefined)	inactive	
CC1CCCCN1CC(=O)N1CCCc2c1c(=O)oc1ccc(OCc3ccccc3)cc21 (centres undefined)	inconclusive: 11.2 µM [inhibitor, single point]	
COc1ccccc1C(=O)Nc1ccc(-c2nc3ccccc3s2)c(C)c1	inconclusive: 3.55 µM [inhibitor, full curve, poor fit]	
CCN(CC)c1cc(CCC(=O)N2CCN(c3ccc(Cl)cc3)CC2)ccn1	active: 8.91 µM	
CC(=O)NC1CC2(CCN(C(=O)C3CCN(C)CC3)CC2)c2ccccc21 (centres undefined)	inconclusive: 12.6 µM [inhibitor, partial curve, poor fit]	
O=C(C1CCCC1)N1CC2(CCN(Cc3ccccn3)C2)OCc2ccccc21 (centres undefined)		inconclusive: -58.8% [inhibitor]
O=C(CC1CCCN(c2cnn(CC3CC3)c(=O)c2)C1)NCCc1ccncc1 (centres undefined)	inactive	
CCOc1ccc(NC(=O)CSC2=Nc3ccccc3C3=NC(CC(=O)NCc4ccc5c(c4)OCO5)C(=O)N23)cc1 (centres undefined)	inconclusive: 0.891 µM [inhibitor, partial curve, poor fit]	
Cc1ccc(S(=O)(=O)c2c(Nc3cccc(Cl)c3)sc(C(=O)c3ccc4c(c3)OCO4)c2N)cc1	active: 7.94 µM	
Cn1ccc2c(C(=O)NCc3cccnc3)nc(-c3ccccc3C(F)(F)F)cc21	inconclusive: 31.6 µM [inhibitor, single point]	
COc1cccc(NC(=O)CSC2=Nc3ccccc3C3=NC(CCC(=O)NCc4ccco4)C(=O)N23)c1 (centres undefined)	inconclusive: 11.2 µM [inhibitor, single point]	

Reference: PubChem BioAssay AID1347417 (National Center for Advancing Translational Sciences (NCATS), 2020)
